Test results reported in the supplement of paper PMC8728848.
The list shows a part of the results.

How the values were obtained:
Assay in all cases: glycan array binding signal (z-score within array); higher = stronger binding
Details in all cases: glycan notation: IUPAC condensed, linker removed
[1] = target: GlcNAc(b1-3)[GlcNAc(b1-6)]GalNAc
Procedure, shortened: (§1)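 The binding signal is a Z-score computed within each array. Data were drawn from 3228 arrays in the Consortium for Functional Glycomics database, restricted to those with a known protein sequence. Scores were averaged over arrays of the same protein sequence at different concentrations or buffers, and over linkers, and negative values can be taken as non-binding.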

[2] = target: GlcNAc(b1-4)Gal(b1-4)GlcNAc
Procedure, shortened: as §1

GlcNAc(b1-4)GlcNAc = target: GlcNAc(b1-4)GlcNAc
Procedure, shortened: as §1

[3] = target: GlcNAc(b1-4)GlcNAc(b1-4)GlcNAc
Procedure, shortened: as §1

[4] = target: GlcNAc(b1-4)GlcNAc(b1-4)GlcNAc(b1-4)GlcNAc(b1-4)GlcNAc
Procedure, shortened: as §1

[5] = target: GlcNAc(b1-4)GlcNAc(b1-4)GlcNAc(b1-4)GlcNAc(b1-4)GlcNAc(b1-4)GlcNAc
Procedure, shortened: as §1

[6] = target: GlcNAc(b1-4)[GlcNAc(b1-6)]GalNAc
Procedure, shortened: as §1

[7] = target: GlcNAc(b1-6)Gal(b1-4)GlcNAc
Procedure, shortened: as §1

GlcNAc(b1-6)GalNAc = target: GlcNAc(b1-6)GalNAc
Procedure, shortened: as §1

GlcNAc3Prop(b1-4)GlcNAc = target: GlcNAc3Prop(b1-4)GlcNAc
Procedure, shortened: as §1

Kdn(a2-3)Gal(b1-3)GlcNAc = target: Kdn(a2-3)Gal(b1-3)GlcNAc
Procedure, shortened: as §1

Kdn(a2-3)Gal(b1-4)GlcNAc = target: Kdn(a2-3)Gal(b1-4)GlcNAc
Procedure, shortened: as §1

[8] = target: Man(a1-2)Man(a1-2)Man(a1-3)Man
Procedure, shortened: as §1

[9] = target: Man(a1-2)Man(a1-2)Man(a1-6)[Man(a1-3)]Man
Procedure, shortened: as §1

Man(a1-2)Man(a1-3)Man = target: Man(a1-2)Man(a1-3)Man
Procedure, shortened: as §1

[10] = target: Man(a1-2)Man(a1-3)[Man(a1-2)Man(a1-6)]Man
Procedure, shortened: as §1

[11] = target: Man(a1-2)Man(a1-3)[Man(a1-2)Man(a1-6)]Man(a1-6)[Man(a1-2)Man(a1-2)Man(a1-3)]Man
Procedure, shortened: as §1

[12] = target: Man(a1-2)Man(a1-3)[Man(a1-2)Man(a1-6)]Man(a1-6)[Man(a1-2)Man(a1-2)Man(a1-3)]Man(b1-4)GlcNAc(b1-4)GlcNAc
Procedure, shortened: as §1

[13] = target: Man(a1-2)Man(a1-3)[Man(a1-6)]Man(a1-6)[Man(a1-2)Man(a1-3)]Man(b1-4)GlcNAc(b1-4)GlcNAc
Procedure, shortened: as §1

[14] = target: Man(a1-2)Man(a1-6)[Man(a1-3)]Man(a1-6)[Man(a1-2)Man(a1-2)Man(a1-3)]Man
Procedure, shortened: as §1

[15] = target: Man(a1-2)Man(a1-6)[Man(a1-3)]Man(a1-6)[Man(a1-2)Man(a1-2)Man(a1-3)]Man(b1-4)GlcNAc(b1-4)GlcNAc
Procedure, shortened: as §1

Man(a1-3)[Man(a1-6)]Man = target: Man(a1-3)[Man(a1-6)]Man
Procedure, shortened: as §1

[16] = target: Man(a1-3)[Man(a1-6)]Man(a1-6)[Man(a1-2)Man(a1-3)]Man(b1-4)GlcNAc(b1-4)GlcNAc
Procedure, shortened: as §1

[17] = target: Man(a1-3)[Man(a1-6)]Man(a1-6)[Man(a1-3)]Man
Procedure, shortened: as §1

[18] = target: Man(a1-3)[Man(a1-6)]Man(a1-6)[Man(a1-3)]Man(b1-4)GlcNAc(b1-4)GlcNAc
Procedure, shortened: as §1

[19] = target: Man(a1-3)[Man(a1-6)]Man(b1-4)GlcNAc(b1-4)GlcNAc
Procedure, shortened: as §1

Man(a1-6)Man = target: Man(a1-6)Man
Procedure, shortened: as §1

Man(b1-4)GlcNAc = target: Man(b1-4)GlcNAc
Procedure, shortened: as §1

Neu5Ac(a2-3)Gal = target: Neu5Ac(a2-3)Gal
Procedure, shortened: as §1

[20] = target: Neu5Ac(a2-3)Gal(b1-3)GalNAc
Procedure, shortened: as §1

[21] = target: Neu5Ac(a2-3)Gal(b1-3)GalNAc(b1-3)Gal(a1-4)Gal(b1-4)Glc
Procedure, shortened: as §1

[22] = target: Neu5Ac(a2-3)Gal(b1-3)GalNAc(b1-3)Gal(b1-4)GlcNAc
Procedure, shortened: as §1

[23] = target: Neu5Ac(a2-3)Gal(b1-3)GalNAc(b1-4)[Neu5Ac(a2-3)]Gal(b1-4)Glc
Procedure, shortened: as §1

[24] = target: Neu5Ac(a2-3)Gal(b1-3)GalNAc6S
Procedure, shortened: as §1

[25] = target: Neu5Ac(a2-3)Gal(b1-3)GlcNAc
Procedure, shortened: as §1

[26] = target: Neu5Ac(a2-3)Gal(b1-3)GlcNAc(b1-3)Gal(b1-3)GlcNAc
Procedure, shortened: as §1

[27] = target: Neu5Ac(a2-3)Gal(b1-3)GlcNAc6S
Procedure, shortened: as §1

[28] = target: Neu5Ac(a2-3)Gal(b1-3)[Fuc(a1-4)]GlcNAc
Procedure, shortened: as §1

B1: L-Selectin (Homo sapiens), P14151 (protein)
chain: MIFPWKCQSTQRDLWNIFKLWGWTMLCCDFLAHHGTDCWTYHYSEKPMNWQRARRFCRDNYTDLVAIQNKAEIEYLEKTLPFSRSYYWIGIRKIGGIWTWVGTNKSLTEEAENWGDGEPNNKKNKEDCVEIYIKRNKDAGKWNDDACHKLKAALCYTASCQPWSCSGHGECVEIINNYTCNCDVGYYGPQCQFVIQCEPLEAPELGTMDCTHPLGNFSFSSQCAFSCSEGTNLTGIEETTCGPFGNWSSPEPTCQVIQCEPLSAPDLGIMNCSHPLASFSFTSACTFICSEGTELIGKKKTICESSGIWSNPSPICQKLDKSFSMIKEGDYNPLFIPVAVMVTAFSGLAFIIWLARRLKKGKKSKRSMNDPY
Q: What does the source list for B1?
A: glycan array binding signal (z-score) [1]: -0.343; glycan array binding signal (z-score) [2]: 0.119; glycan array binding signal (z-score) (GlcNAc(b1-4)GlcNAc): -0.086; glycan array binding signal (z-score) [3]: -0.247; glycan array binding signal (z-score) [4]: -0.169; glycan array binding signal (z-score) [5]: -0.297; glycan array binding signal (z-score) [6]: -0.375; glycan array binding signal (z-score) [7]: -0.479; glycan array binding signal (z-score) (GlcNAc(b1-6)GalNAc): -0.36; glycan array binding signal (z-score) (GlcNAc3Prop(b1-4)GlcNAc): -0.165; glycan array binding signal (z-score) (Kdn(a2-3)Gal(b1-3)GlcNAc): -0.259; glycan array binding signal (z-score) (Kdn(a2-3)Gal(b1-4)GlcNAc): -0.255; glycan array binding signal (z-score) [8]: -0.35; glycan array binding signal (z-score) [9]: -0.267; glycan array binding signal (z-score) (Man(a1-2)Man(a1-3)Man): 0.096; glycan array binding signal (z-score) [10]: -0.06; glycan array binding signal (z-score) [11]: -0.265; glycan array binding signal (z-score) [12]: -0.185; glycan array binding signal (z-score) [13]: -0.024; glycan array binding signal (z-score) [14]: 0.018; glycan array binding signal (z-score) [15]: -0.2; glycan array binding signal (z-score) (Man(a1-3)[Man(a1-6)]Man): -0.371; glycan array binding signal (z-score) [16]: -0.276; glycan array binding signal (z-score) [17]: -0.198; glycan array binding signal (z-score) [18]: -0.281; glycan array binding signal (z-score) [19]: -0.246; glycan array binding signal (z-score) (Man(a1-6)Man): -0.152; glycan array binding signal (z-score) (Man(b1-4)GlcNAc): -0.256; glycan array binding signal (z-score) (Neu5Ac(a2-3)Gal): -0.226; glycan array binding signal (z-score) [20]: 0.005; glycan array binding signal (z-score) [21]: -0.403; glycan array binding signal (z-score) [22]: -0.116; glycan array binding signal (z-score) [23]: 0.447; glycan array binding signal (z-score) [24]: -0.152; glycan array binding signal (z-score) [25]: -0.147; glycan array binding signal (z-score) [26]: -0.063; glycan array binding signal (z-score) [27]: -0.154; glycan array binding signal (z-score) [28]: 0.543
